About 540 (0.36%) of roughly 150,000 compounds showed an effect of 50% or more. This is one part of the list.

For this experiment, the system named is Plasmodium falciparum. The experiment can be described thus: Primary screen in NF54 nanoGlo assay, in single point, at 2uM, 72h; a lower Z score goes with more inhibition. Type of experiment: functional, Erythrocyte. The following applies: timepoint 72 hour.
The % Inhibition is the drop in the measured response relative to a control, in per cent. Regarding `Cc1cnc(C(=O)Nc2ccccc2OC[C@H]2CCCO2)cn1`, the “% Inhibition” value is listed as -7% and the Z score came to 0.65.

On to `CC1CN(C(=O)CCC(C)(C)C(=O)N2CC(C)OC(C)(C)C2)CC(C)(C)O1` (centres undefined), for which the “% Inhibition” value is reported as -11% and the Z score came to 2.13.

`CNc1cc(C)nc(N2CCC[C@@]3(CCC(=O)N(Cc4cccnc4)C3)C2)n1`: the “% Inhibition” value is reported as 0% and the Z score was determined as 0.06.

In the case of `COC(=O)c1cc(CNc2ccncc2F)n(C)c1C`, the “% Inhibition” value is -3% and the Z score is listed as 0.33.

Take `Cc1nc(N2CCN(CCCO)CC2)c2cc[nH]c2n1`: the “% Inhibition” value came out at 14% and the Z score is on record as -2.18.

Take `CS(=O)(=O)c1cccc2c1N(C(=O)C(F)F)CCC2`: the “% Inhibition” value was -3% and the Z score is on record as 0.48.

`CCS(=O)(=O)CC(=O)Nc1ccc(-c2cccc(F)c2)c(F)c1`: the “% Inhibition” value was -3% and the Z score stood at 0.53.

Take `CCN(C[C@H]1CCCCO1)C(=O)COc1cccnc1`: the “% Inhibition” value is given as -10% and the Z score was found to be 1.29.

Consider `CCO[C@H]1COC[C@@H]1NC(=O)N1Cc2cccnc2N2CCC[C@H]2C1`, for which the “% Inhibition” value was -15% and the Z score is given as 1.56.

For `COc1ccc(CCCN2CCOC(C3CCCO3)C2)cc1F` (centres undefined), the “% Inhibition” value is listed as -9% and the Z score was determined as 1.21.

Take `CS(=O)(=O)NCc1cccc(Cl)c1`: the “% Inhibition” value was 10% and the Z score is given as -1.92.

As to `CC(C)Oc1ccccc1CN1C[C@@H]2C(=O)N(CCCN3CCCC3=O)C(=O)[C@@H]2C1`, the “% Inhibition” value came out at 5% and the Z score was -0.59.

In the case of `COCCN(CC(=O)N(C)C)c1nccc(C)n1`, the “% Inhibition” value is recorded as -5% and the Z score is listed as 0.67.

Regarding `CCc1cccc2c(C(CC(=O)NC(C)c3ccccc3)c3ccccc3C(F)(F)F)c[nH]c12` (centres undefined), the “% Inhibition” value was -2% and the Z score worked out at 0.33.

For the compound `Cn1cnnc1COCC(=O)N1CC(C)(C)[C@@H]2CCC[C@@H]21`, the “% Inhibition” value was determined as 21% and the Z score is -2.72.

Take `C#CCN(Cc1ccco1)C(=O)c1c[nH]c(=O)c(Cl)c1`: the “% Inhibition” value was -2% and the Z score is on record as 0.22.

As for `CCc1ccc(-c2cc3c(=O)n(Cc4nc(-c5cccc(Cl)c5)oc4C)ccn3n2)cc1`, the “% Inhibition” value is listed as -2% and the Z score amounted to 0.28.

Take `CC(=O)N1CCC(NC(=O)c2ccncc2)CC1`: the “% Inhibition” value was -1% and the Z score was found to be 0.15.

In the case of `Cc1cc2c(cc1S(=O)(=O)N1CCCC(C(=O)NCc3ccc(OC(C)C)cc3)C1)OC(C)C(=O)N2` (centres undefined), the “% Inhibition” value was -13% and the Z score turned out to be 1.48.

In the case of `C[C@H]1COC2(CCN(CC(=O)N(C)Cc3ccc(F)cc3)CC2)O1`, the “% Inhibition” value is recorded as 0% and the Z score is reported as 0.07.

For the compound `COc1ccc(C2CCCN2C(=O)CN2CCOCC2C)cc1OC` (centres undefined), the “% Inhibition” value turned out to be 2% and the Z score is reported as -0.24.

As for `COc1cccc(OC)c1C(=O)N[C@@H]1c2ccccc2C2(CCNCC2)[C@H]1OC`, the “% Inhibition” value is given as -10% and the Z score came to 2.07.

In the case of `O=C(c1cccc(S(=O)(=O)N2CCCCC2)c1)N1CCc2sccc2C1`, the “% Inhibition” value is recorded as 3% and the Z score is given as -0.39.

For `C[C@@H](CN1CCOCC1)NC(=O)c1cccc2c1C(=O)OC2(C)C`, the “% Inhibition” value amounted to 2% and the Z score is on record as -0.36.

Regarding `CCc1noc(C(C)N2CC(C)C(N3CCCN(C(C)=O)CC3)C2)n1` (centres undefined), the “% Inhibition” value is recorded as -8% and the Z score was found to be 0.87.

`COc1ccc(CCNC(=O)CCn2c(-c3ccccc3)cc(C(C)=O)c2C)cc1OC`: the “% Inhibition” value is given as 14% and the Z score is recorded as -1.63.

Consider `Cc1nc(-c2ccc(C(=O)NCCN3CCCCC3)cc2)n(C)n1`, for which the “% Inhibition” value is listed as -18% and the Z score was found to be 1.85.

With `Cc1ccc(-n2cc(-c3ccccc3)nc2NC(=O)CN(Cc2ccccc2)C(=O)c2cccs2)cc1F`, the “% Inhibition” value was determined as 0% and the Z score is -0.09.

In the case of `CNC(=O)N1CCN(S(=O)(=O)c2ccc3c(c2)CCCC3)CC1`, the “% Inhibition” value is listed as -13% and the Z score turned out to be 1.21.

Take `c1ccc(-n2cc(-c3nc(-c4cnccn4)cs3)cn2)cc1`: the “% Inhibition” value is listed as -7% and the Z score was determined as 1.27.

For `Cc1c(NCc2ncc([C@H](C)O)s2)cccc1N(C)C`, the “% Inhibition” value is -3% and the Z score worked out at 0.3.

In the case of `C[C@@H](NC(=O)C[C@@H]1[C@H](O)CC[C@@H]2[C@](C)(CO)[C@H](O)CC[C@]21C)c1ccccc1`, the “% Inhibition” value came out at 12% and the Z score is recorded as -1.8.

Turning to `c1cnc2nc(N3CCC[C@H](c4nc5c(s4)CCC5)C3)ccc2n1`, the “% Inhibition” value is recorded as -7% and the Z score is 1.37.

As to `COc1ccc(-c2nnc(Cc3nc(-c4cccc(F)c4)no3)o2)cc1OC`, the “% Inhibition” value is given as -3% and the Z score is given as 0.42.

In the case of `Cc1ccc(-c2cn[nH]c2[C@H]2CCCN(C(=O)c3cnc(O)cn3)C2)cc1`, the “% Inhibition” value is given as -17% and the Z score is recorded as 2.25.

Take `CC(C)Nc1nc(NC(C)C)nc(N(C)n2cnnc2)n1`: the “% Inhibition” value is -4% and the Z score is 0.56.

Consider `O=C1C[C@H](c2cccc(O)c2)c2c(n(C3CCCCC3)[nH]c2=O)N1`, for which the “% Inhibition” value is reported as -5% and the Z score is 0.58.

Take `CCc1nc(C(C)NCC2CCCN(S(C)(=O)=O)C2)cs1` (centres undefined): the “% Inhibition” value amounted to 2% and the Z score is recorded as -0.34.

Take `COc1cccc([C@@H]2CC(=O)Nc3nc(N4CCC(C)CC4)nc(O)c32)c1`: the “% Inhibition” value turned out to be 27% and the Z score is -3.93.

Regarding `COc1cc(-c2cccnc2)nc(N)n1`, the “% Inhibition” value is reported as -11% and the Z score is on record as 1.56.

As to `CC[C@H]1CN2C=NC(N3CCN(C(=O)Nc4cc(F)cc(F)c4)CC3)=CC2=N1`, the “% Inhibition” value was determined as 68% and the Z score was -4.25.

With `CC(C)OC(=O)[C@H](C)N(C)c1nccc(C(F)(F)F)n1`, the “% Inhibition” value turned out to be 1% and the Z score is on record as -0.27.

Turning to `O=C1N(CC2CCCCC2)CCC[C@@]1(O)CNC1CCCC1`, the “% Inhibition” value is recorded as -23% and the Z score is reported as 2.01.

With `CCS(=O)(=O)N[C@@H](C)Cc1ccccc1Br`, the “% Inhibition” value is -11% and the Z score was determined as 1.16.

`COc1ccc(Nc2ncc(C#N)c(Nc3ccccc3)c2C#N)cc1`: the “% Inhibition” value is recorded as -4% and the Z score is reported as 0.55.

As for `CCCC(CCC)NC(=O)c1cncn1-c1ccc(-c2cc(C(F)(F)F)cc(C(F)(F)F)c2)cc1`, the “% Inhibition” value is given as -16% and the Z score turned out to be 1.63.

Take `Cc1nn(C)c2nc(N[C@@H](C)Cn3cncn3)sc12`: the “% Inhibition” value is given as -24% and the Z score stood at 2.62.

As to `CC(C)(C)NS(=O)(=O)c1cnc(NS(=O)(=O)c2ccccc2)s1`, the “% Inhibition” value came out at 0% and the Z score turned out to be 0.07.

As to `COCc1nc(C)c(C(=O)OCC(C)(C)N2CCNC2=O)s1`, the “% Inhibition” value is -5% and the Z score was determined as 0.63.

As to `N#Cc1cc(C(=O)NC23CCC(C(F)(F)F)(CC2)CC3)c[nH]1`, the “% Inhibition” value is listed as -6% and the Z score is given as 1.13.

`CN1[C@@H](c2ccc(Cl)cc2)[C@@H](C(=O)NCc2cccnc2)C[C@@]1(C)C(=O)O`: the “% Inhibition” value is -1% and the Z score was 0.25.

As to `Cc1ccc(CNC(=O)c2cc(-c3cccc4ccccc34)[nH]n2)cc1`, the “% Inhibition” value was 33% and the Z score is listed as -3.77.

The values are drawn from ChEMBL document CHEMBL4888484, “Replenishing the malaria drug discovery pipeline: Screening and hit evaluation of the MMV Hit Generation Library 1 (HGL1) against asexual blood stage Plasmodium falciparum ,using a nano luciferase reporter read-out” (2022).
